From the supplement of paper PMC11417369
± gives the standard deviation of the averaged measurements. The list shows a part of the results.

test system: PfAP2-LT AP2 domain (GST-tagged); assay: gcPBM binding intensity (ln(normalized median fluorescence intensity)); higher = stronger DNA binding
How it was run: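 DNA-binding domains from P. falciparum, fused to GST and produced in E. coli, were put on an Agilent 4 × 180k double-stranded probe array for 1 h in 1× PBS holding 1% milk, 0.2 mg/ml BSA, 0.5% salmon testes DNA and 0.03% Triton X-100. Probes were primer-extended, 36 bp long and drawn from intergenic genomic regions, with negative controls included. After Alexa488 anti-GST antibody detection and a 488 nm scan, binding intensity was set as the highest Masliner-normalised natural-log median intensity across replicate spots of either probe orientation.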

Sequence | gcPBM binding intensity (ln)
TATATTAAACATATATGTACATATTTTTTCTGAACA [XGTACX_site5390] | 8.66 ± 0.4
TATTGTTTTTTTGATTTTTTTTTTTTTTTTAATGAA [CACACA_negctrl_site824] | 8.26 ± 0.49
AATATCAATGATGTTACATGCAAGAGAATCCACAAA [TGCATGCA_site678] | 8.96 ± 0.42
AATATTTTCTGTAATACTTCTTTTCAATTTATTTCG [CACACA_negctrl_site1390] | 8.66 ± 0.53
ACCAAATCATATATAGCACACAAATTCTTTATTATT [CACACA_site8911] | 8.94 ± 0.38
AATGTATAATTATAATGTACAAATAATATATAATAT [XGTACX_site5407] | 9 ± 0.34
TAACTCCACAAATAATGTACATATATCACTATATTT [XGTACX_site4911] | 8.93 ± 0.38
TACATATGAAAATACACACATACATACATATATATA [CACACA_site1673] | 9.21 ± 0.34
TATATAATATATATTTTATATTTGTAATAATTTTTT [GTGCAC_negctrl_site497] | 8.34 ± 0.4
ATTTACATTCACTTATGTACTTATATAATTTTATTT [XGTACX_site8150] | 9.05 ± 0.49
GCTCAATTTTTGGGTACACACAAATGTATAAGAATA [CACACA_site7178] | 8.86 ± 0.37
TTTTTCTAATTATGCACACATATCAAAATATTCAAT [CACACA_site2749] | 8.79 ± 0.46
ATATATATAGAAATATGTACGAAAAAAATATCACAT [XGTACX_site746] | 9.02 ± 0.35
TATTTATTTTATATATGTACATAATATATTCTTATA [XGTACX_site1619] | 8.73 ± 0.46
TATATATATATATATGTGCACTGAAAGAATTATACA [GTGCAC_site9586] | 9.58 ± 0.057
AATAAGCTCACGTGTCGTACATTTTTTAAAACAACC [XGTACX_site4707] | 8.85 ± 0.42
TCAAAAAAAAAAAAAAAAAAAAAAAAAAAAAAAAAA [CACACA_negctrl_site1753] | 8.04 ± 0.22
AAAATCAAAAAAACAAGTACAAATGTGGACTTTTTT [XGTACX_site5363] | 8.75 ± 0.45
TGTTCTATGGTTTGTAGTACTTTAATAAATATAAAT [XGTACX_site7823] | 8.56 ± 0.4
TGACCTGTTCAGGTAACACACATATAAACCCATACA [CACACA_site31] | 9.11 ± 0.35
ATGCTATAGGATCTTACACACATTTTTGTAAAAAAA [CACACA_site1868] | 8.79 ± 0.35
TTTTTTTTTTTTTGGTGTACCATAGGTAAAATGATT [XGTACX_site8020] | 8.43 ± 0.37
ATTTATGGAAAAAGAACACACAATCAAACAAAAATA [CACACA_site3707] | 9.03 ± 0.47

Sequence | gcPBM binding intensity (ln)
ATATAAATGAATATATGTACATATATATATATATAT [XGTACX_site6361] | 9.71 ± 0.44
GAAAAAAAAATATCTTGTACTTACATAACTATTGGT [XGTACX_site5326] | 8.63 ± 0.44
TAAATTAAAAAACATAAACTATTGGAAACGCATTGA [CACACA_negctrl_site935] | 8.72 ± 0.43
AAAGGTTTATCTGATACACACATAAGTGATCAGGTT [CACACA_site6233] | 8.83 ± 0.33
TATACATATGTATGCACACATACATACCCATATAAT [CACACA_site5842] | 9.12 ± 0.33
CTATATATAAAATATTGTACTTATTTTTATTACATC [XGTACX_site3963] | 8.72 ± 0.35
TTTTCTCAATTTTGGTGTACTTTTTTCTTAACACAT [XGTACX_site8918] | 8.94 ± 0.35
TATTTAAAATATTAAATTTGTAAAGTTCGAGGGAAG [GTGCAC_negctrl_site337] | 8.32 ± 0.38
ACACAATAAACATTATGTACATATAATGTTCTGTGT [XGTACX_site3381] | 9.03 ± 0.45
AATGATAATCTATTATGTACACATATATTCTTATGT [XGTACX_site4148] | 9.02 ± 0.53
CACAGTGATATAAAAACACACATGAATTAAAATTTC [CACACA_site4999] | 8.99 ± 0.47
TATTTTTATCAATTCACACATAAATATATTTATATG [CACACA_site5547] | 8.64 ± 0.46
CATACATACAGACACACACACATATTTATATTTATA [CACACA_site6172] | 9.9 ± 0.41
TCCCTTAATTTTGTGTGTACATATAATATATTTTTA [XGTACX_site2789] | 9.11 ± 0.47
GTTAATTATTAAATTTGTACTCATATATATTATATA [XGTACX_site6862] | 8.71 ± 0.53
AAGAACTCATTAATAATGTAATATTTTATAATTTAG [CACACA_negctrl_site321] | 8.34 ± 0.48
ATTCATAAATATATTTGTACATATTATATATAAATA [XGTACX_site1907] | 8.5 ± 0.44
ATAATAAAACTCAAAGTGCATTAGAATAATTGTAAA | 8.7 ± 0.47
AGCACCCACCAACACACACACACACCCACCCACCCA [CACACA_site8011] | 10.3 ± 0.11
TAATATATAACGTGCACACACACATTTACGTATGAA [CACACA_site1832] | 9.48 ± 0.28
ACAATAAATATGTGGTTGCACTTATAATATATTTAT | 8.74 ± 0.38
TATACATATTTCTATTGTACATAAACTAAATCTTCA [XGTACX_site28] | 8.46 ± 0.35
TTTTTATAATAAAAAAATATAACTATATTAAGCCAC [CACACA_negctrl_site555] | 8.4 ± 0.39

Sequence | gcPBM binding intensity (ln)
TACAATTGTAAAGGCGCACACATATATATATATATA [CACACA_site1392] | 10.3 ± 0.23
GATATTATTGCATATTTACACACGTACTAATTTAAA [CACACA_site8231] | 9.14 ± 0.4
TTTAATAAAATTCTAGTGCAAAAAGGAAAAAACAAA [GTGCAC_site9642] | 8.57 ± 0.42
AATATATAGGAAAAAGTGCAATAAATGAACAAAATA | 9.02 ± 0.46
AAAAGAAATGACAAATTGGATAGATAATAGGGGGTA [GTGCAC_negctrl_site262] | 9.12 ± 0.092
AATTTTGATATATATTGTACGCATTTTTAAATGCCA [XGTACX_site7694] | 8.79 ± 0.4
TTATTTACTTATTGCACACATATAAAATATATTTAT [CACACA_site3101] | 8.98 ± 0.39
TTCTTAATTTAAAATTGTACTTAAGTAATACTTATG [XGTACX_site3928] | 8.49 ± 0.57
GAAGTTTTTTAAAGATGTACTTTTTAAAAATAATGT [XGTACX_site1975] | 8.31 ± 0.45
AAAAAAAAAAAAAATACACACATATATAAATAAATA [CACACA_site6459] | 8.96 ± 0.47
GGAATAGTGATATATACACACAAATACATATTTATA [CACACA_site6183] | 9.18 ± 0.35
AATTAATAAGAAAGGTGTACAGAAAAAAAAAAATAT [XGTACX_site2106] | 8.91 ± 0.57
GAAAAAAGAAATTTATGTACATACATATATATATAT [XGTACX_site7888] | 9.07 ± 0.33
ATATGTAAAATATGGGGTACGAAGGTAGGTAGGTAA [XGTACX_site1392] | 9.37 ± 0.52
ATAAAGCCATACAATACACACATTTTACATGTCGGT [CACACA_site3265] | 9.23 ± 0.46
ATTCTATATGTTACATAAACCTATATTTTTTTTTTT [CACACA_negctrl_site860] | 8.63 ± 0.56
TAAGCCACCATATTTACACACACATCAAAATGTATT [CACACA_site1815] | 9.36 ± 0.36
TAAATAATATAATTATGTACGTATTTCTTTATTTTA [XGTACX_site8410] | 8.61 ± 0.42
GCTGAAAATAAATGAAGTACACAAGTAATATATATA [XGTACX_site6205] | 9.05 ± 0.5
TATATATATATATATACATGCATCATTGTTCACCTT [TGCATGCA_site177] | 10.2 ± 0.35
TAATATTGACTATATACACACATATAAATATAAATA [CACACA_site6414] | 8.91 ± 0.33
AAAAAAAAAAAAAAAAGTACATATGCTCAAGAGATG [XGTACX_site3783] | 8.68 ± 0.45
TTTTTTTTTTAATTAACACACATAAATATAAATATA [CACACA_site7527] | 8.41 ± 0.42

Sequence | gcPBM binding intensity (ln)
CATTCAAAGAAAAACAGTACGTGTAGCAAAAGGCCT [XGTACX_site266] | 9.05 ± 0.38
AATGGGATCATGGTATGTACTTACACAAATGAATTA [XGTACX_site5389] | 8.76 ± 0.55
TTGTATTTACTATACACACACATACATACATACATA [CACACA_site4603] | 9.45 ± 0.31
TGAATAAAATATTATACACACATATGTATTTAACAT [CACACA_site4694] | 8.91 ± 0.35
ATCATTTAAACAATATGTACTCATTGTAGATATGGT [XGTACX_site5088] | 8.77 ± 0.36
AATGCGCATTTTTTTTTTTTTTTTTTTTTTTTTTTT [XGTACX_negctrl_site258] | 9.09 ± 0.085
ATATATATATATATGTGTACATATTAGTGATATAAT [XGTACX_site7161] | 9.35 ± 0.028
CGTTACACAAAAATATGTACATATATACATATATAT [XGTACX_site4631] | 8.92 ± 0.48
TATAAATATAAATACTGTACATTATATTATATAATA [XGTACX_site2480] | 8.53 ± 0.43
TATTCCCCCAAACACACACACACACCCACATACCAC [CACACA_site2304] | 10.5 ± 0.13
TAAAAATAATATTAATGTACATTACATATTAATATA [XGTACX_site1019] | 8.43 ± 0.46
TATACGTGTTTTATTTGTACTTAAGCAGGTAAGCAT [XGTACX_site193] | 8.62 ± 0.36
CTATATATTTTTTCTTAACACACATATATAAAATAA [CACACA_site9165] | 8.45 ± 0.35
TATATGTATCCATTATGTACATAATAGTAATATAAT [XGTACX_site4008] | 8.82 ± 0.38
TATATTTATTTTCTGTGTACACATATGTTGTGTATT [XGTACX_site7640] | 9.28 ± 0.49
AAAACCTAGTGCATTTGTACATATTTCAATTTTAAA [XGTACX_site4582] | 8.59 ± 0.49
TAAAAAATACAAGAGTGTACAAAATTTTTCTAAATG [XGTACX_site5334] | 8.8 ± 0.49
AATATAAATGTGATTACACACAACAGATTTAAATGG [CACACA_site4802] | 9.12 ± 0.45
TTATTTTTTAATTATATTCAAAATTAAAAAAAAAAA [XGTACX_negctrl_site226] | 7.79 ± 0.33
ATTAAAAAAAAAAAAAAAAAAAAAAAAAAAAAAAAA [CACACA_negctrl_site1060] | 8.02 ± 0.17
